From the supplement of paper PMC12632987
In all, about 4,500 sequences were measured (“median log2 fold change of GCK-ALFA target abundance (FLAG IP / Myc IP barcode read proportion)”: median about 0.078, lowest 2% from about -0.6 on). Some of the results follow.

B1: GBRAP_160_4660 (protein)
chain: SEEIEKLKEEIKEIIEEAKKMVEGESHEQRVAIARVMVGQIILEMEESEEISEEAVDEVDKIGRELVATLEANPDLSDEEVKALIEEMLEKILEVIDKHS
B2: GBRAP_128_3237 (protein)
chain: WDPAVKAEAEALIKTIVEGTEEEAAEATAKLVDLMSTVNLEEAEEIAEMLIKALEKLTAEKLDVVADTLRKNRGKLDPEKATLAYDVEIEALNLAEELEE
B3: GBRAP_128_3495 (protein)
chain: STEELVERTRELMRRIGEADAEEAARLTRELVELLASANEEEREAMVEVVRELLPELDAEKLDVVADTLEEEMPSLNPEVANLVADIRVEALNAAEEKEE
B4: GBRAP_160_4108 (protein)
chain: SAGAEAILADFREVFAEVLELWDEVSPEELVAYYEVETGSVIMDAMENYGLSDETADRLLDIRDEAAARLLAHGNVSREEVERILAEALARIEAAVAAAA
B5: GBRAP_160_4821 (protein)
chain: SESLEEALKLIEETAKEILELSKGESPEERAVIAAVEYGRLILELSEIPEVSDELEEEVDKIADEFVQEILDNPDITEEEFRELIERAKKEIEEAVKKHF
B6: GBRAP_52_6150 (protein)
chain: SEAEAKAYADRFIAAVKAGDRAKALAIMKEIAATMSEEEITLFMDHVAAQVATLTDEQKELVVELMIEFEDIAEAAGHDPDLLSYQLAVVAGAAYDAIQK
B7: GBRAP_52_6250 (protein)
chain: MEERMRELAERILELVKEGKYEEARELVREIAARLNEEELRLLIDELARLAEESRKEDIEAVWKAAEIIAEVLEEEGKPEILADYLESKVAAALVKVEEK
B8: GBRAP_95_7068 (protein)
chain: SEEAEIAAALADTMALYLEAGLLEHAARDLVAIAEEAEAHPDLKIEFPATPEQLRRALRALAAIRPREEAIRVAEVLARHAADPEHRAALEETAAELRAE
B9: GBRAP_84_7007 (protein)
chain: SREQEILEITNKILEKGSIELKKKLLTYLILKNENKAATLALNYLLEEDPEAAVEALDEATEAYEEGKEEEVRKELLELAKKEGEEVYALVEELLELIDE
B10: GBRAP_150_3896 (protein)
chain: NLEELLTIADTHADILEGMIDSGKYDVTILKTLLKTTEQEIKEAPPEVAKLLTKAADALKKAIALLEAGAPQAEIDAELKKAADAYKEAAELLEKKIEEE
B11: GBRAP_160_4739 (protein)
chain: SARIDALVEEARATLLEALELSEGESPEERAAIFRGAAGEVLMDFMSDPSLSDEQEDAAAEILDELVAELVAAADASPEEKRAIVDEHMARLRDTLLALA
B12: GBRAP_117_2571 (protein)
chain: SAKLEKAEKEIKEFVEKVAERLEEMKELSEEERKKELEELEEETYELVKKLVEELGKEKTIDLFEEAIADLDAETYFKISVLFENAFSRIEEEEEEEEEE
B13: GBRAP_31_5502 (protein)
chain: MTVEEKEALLREYARLAREEGDVDAAVAAAHLIDQMRKAGHDEALKRIVKEFPDLAALLRAARARLEALAAAGNPTAKYILETSGATIDAVIAYLEALRA
B14: GBRAP_186_5384 (protein)
chain: EEEAEEEEDRLIDEYEAQGYRVIVSYIEGKSLEEIKESIARDADAVAALAEETGQKWALIVRITTKEEDAEAIRAYVDELNARYLAKTGVVVRAVIANSD
B15: GBRAP_52_6234 (protein)
chain: MEERMRELAREIVELVKAGKEEEARKLAKEVAETLNEEELRILVEEFAELARAARPEDLDAVWRAVEIMAEALEEAGRPEILADDLESRTAAAAVEVLAR
B16: GBRAP_160_4427 (protein)
chain: SATLEKAKKEIDEIFDETAEMMKGESAEQRIVLVRVAEGEVILELEELGLLTDEVDKVIDERFKAIADTIAANPDISDEELKAMLDAARDAILEELDKVS
B17: GBRAP_9_7110 (protein)
chain: KKELAKKVKEIIEDMREELLKVVSEELQPLVIELSQKILDTIDKMEKDPSVTKEELKETTLEMLKQMREELLKKANPEEQAGIETEIATAEWEIEEAYEE
B18: GBRAP_39_5644 (protein)
chain: EKEEEDELEYSYLLAVGAAAQYEKGWNDEELKEETIKRLKKLAEEHPEIKELLEKLLEVVENGDLEDVVAAYGIALLAEEGTPLEEIKEHIESFLNYKES
B19: GBRAP_128_3157 (protein)
chain: STEEVREETRRLLEEIRESDEEEAREIARELFALILTLSDEEAEAAVEVILELLPELSKEKLEILADVAREMRPEADPFKAELLAEVEVEALNEALELEE
B20: GBRAP_160_4091 (protein)
chain: SEKIEEIIEELDELAEETKEMIEGENIEERAIIVEGLGGDVIMLLFESGEVTDEVIDFADKEFDALVAKIKANPDLTLEEIKELIDETIEKIKEKIKEES
B21: GBRAP_26_5472 (protein)
chain: LEELFDEFREKLEKKLDELLDPELAAAAKAELDTLVYEAEEKLEKNKNDLEKQEKILEEFLKELGEALETLGVPEEKRKKILEVAKKLAKEILEKLKEKL
B22: GBRAP_53_6427 (protein)
chain: MEEKIKELKEKIEKLAEEATKADEAEAKKLTAEIGAALKELKAAGMPDEEITELVEKIARLFKEAGVPDSVLVALANSLAAMGLDDATAEVAEVIVEELE
B23: GBRAP_11_2847 (protein)
chain: KKEELEKIAKKADEVIKLIDKLIKEGTDNKKLREEVKKKLEELKKLVEKHLDESSKKLAEYAIEDLEEAEKDPENALEHLNNAKAFVRTLRGQVLLEIEE
B24: GBRAP_166_4871 (protein)
chain: SMEERLKKAKKEMLELIKEAAELNADEQVEKYIEIGEIIKKLKEEGLSEEEILKLIEEILKKAKEEGLDVKLLAGIIENVVGFDEEEIDKVEKILKEVLK
B25: GBRAP_83_6918 (protein)
chain: KEKIVVAGPADHADELADAVIDLTKEEGYEVDVEILARPEQRPKVLALVDRLAKAGIETRIEVLGFGMTEEEAAALRAEMEAIAAAHGVNIEVEVELLEE
B26: GBRAP_39_5638 (protein)
chain: SREEEAEETFDYLEALGAKLLSERGISLDELLEEEYKYAREAFKDDPELLAAIDELYELALKGDDTDKLAAAGAFSLVREGKSKEEVLEAVELLIYYLKS
B27: GBRAP_80_6770 (protein)
chain: MEERIEKVIKEIEEIDPEIAKLLERLIEVARELGVPMETILRLAEAILELAKIDKEKARKLVEEALKELEEALKEGDREAALAVLVDAISEALLEVEELE
B28: GBRAP_11_2709 (protein)
chain: KKEKIKELAKEAEKLAKEIKKLIKEGPKEEELKKLAKKVKELAEKAKELGVDQAVVDTLNIAAEELKKAIENPETVEEHLKNAAAAVAVAAGLLLLEAEE
B29: GBRAP_128_3200 (protein)
chain: VSPEAIAALRALADEVIATRTDEAIRAFAEAIAAALKAGKIDLDALEAIVAYLGKGLSSDDIARAMDALREALADVGPEYLATATGTLGEEIMEKEEEEE

Molecular target: GABARAP, O95166
Assay: median log2 fold change of GCK-ALFA target abundance (FLAG IP / Myc IP barcode read proportion) (log2 ratio); each designed protein is fused to an ALFA-tag nanobody in HEK293 cells to bring the named protein to FLAG-tagged glucokinase (GCK); Myc marks an untargeted standard; higher = target protein stabilised (more abundant)
Conditions: target protein: 3xFLAG-MCP-GCK-ALFA reporter; HEK293 landing pad (RPLP)
Experimental: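 LABEL-seq trans screen in HEK293 landing-pad cells. Each de novo designed 100-aa effector handle, binding the indicated effector (E3 ligase, DUB or autophagy protein), is fused to a constant NbALFA target handle and induced with 2 ug/mL doxycycline. A FLAG-MCP-GCK-ALFA target and a Myc-MCP standard reporter were transfected, and after 48 h circRNA barcodes were recovered by anti-FLAG and anti-Myc IP and sequenced. The value is the median across barcodes (at least 3 per design) of log2(FLAG/Myc read-proportion ratio), with the two transfection replicates pooled. Negative values mean degradation and positive values mean stabilisation of the target.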

Chain of GABARAP, O95166 (O95166 whole entry, the tested form may be a part): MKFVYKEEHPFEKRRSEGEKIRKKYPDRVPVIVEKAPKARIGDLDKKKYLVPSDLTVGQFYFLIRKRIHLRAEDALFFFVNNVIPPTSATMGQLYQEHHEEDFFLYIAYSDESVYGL

B1 and B2 are within 0.2 log units of each other in “median log2 fold change” value: 0.165 for the first, 0.0017 for the second.

First: B3
Second: B4
The “median log2 fold change” value of the first is higher: 0.23 for the first, -0.764 for the second.

B5 and B6 are within 0.2 log units of each other in “median log2 fold change” value: -0.0527 for the first, 0.0147 for the second.

B7 and B8 are within 0.2 log units of each other in “median log2 fold change” value: 0.271 for the first, 0.195 for the second.

Compared with B9, B10 is higher in “median log2 fold change” value: -0.316 for the first, 0.263 for the second.

B11 and B12 are within 0.2 log units of each other in “median log2 fold change” value: -0.0595 for the first, -0.0146 for the second.

Compared with B13, B14 is lower in “median log2 fold change” value: 0.263 for the first, -0.0488 for the second.

First: B15
Second: B16
The “median log2 fold change” value of the first is higher: -0.139 for the first, -0.348 for the second.

B17 and B18 are within 0.2 log units of each other in “median log2 fold change” value: 0.16 for the first, 0.118 for the second.

First: B19
Second: B20
The “median log2 fold change” value of the first is higher: 0.00897 for the first, -0.254 for the second.

B21 and B22 are within 0.2 log units of each other in “median log2 fold change” value: 0.291 for the first, 0.387 for the second.

Going from B23 to B24, the “median log2 fold change” value rises from 0.116 to 0.344.

B25 and B26 are within 0.2 log units of each other in “median log2 fold change” value: 0.109 for the first, 0.2 for the second.

B27 and B28 are within 0.2 log units of each other in “median log2 fold change” value: 0.23 for the first, 0.189 for the second.

B29 was tested, and the “median log2 fold change” value was 0.224.
